Measured values as given in the supplement of paper PMC4967469.
A lower IC50 marks a more sensitive line; fits outside the tested doses are given as limits. AUC, from the same fit, is the share of area under the viability curve across the 256-fold dose range; it is 1 without any effect and falls as sensitivity rises. For some assays here: An inferred top dose was derived from the fitted curves, not read from the paper.

Columns and labels:
Assay in all cases: Viability of human cancer cell lines after 72 h of drug (GDSC screen)
WHI-P97 = compound: COc1cc2ncnc(Nc3cc(Br)c(O)c(Br)c3)c2cc1OC [WHI-P97]; conditions: top dose 10.24 µM; top dose inferred
Description: (§1)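 Human cancer cell lines in 384-well plates, medium with 10% serum, drug for 72 h over a 256-fold dose range (nine 2-fold or five 4-fold steps up to the top dose). Adherent lines were fixed and stained with the nucleic acid dye Syto60, suspension lines read with resazurin; signal relative to control wells, capped at 0 and 100%. One two-parameter sigmoid per drug and line, fitted in a mixed model over all curves with the slope shared within a line.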

Gefitinib = compound: COc1cc2ncnc(Nc3ccc(F)c(Cl)c3)c2cc1OCCCN1CCOCC1 [Gefitinib]; conditions: top dose 0.5 µM
Description: as §1

NU-7441 = compound: O=c1cc(N2CCOCC2)oc2c(-c3cccc4c3sc3ccccc34)cccc12 [NU-7441]; conditions: top dose 2 µM; top dose inferred
Description: as §1

EHT 1864 = compound: O=c1cc(CN2CCOCC2)occ1OCCCCCSc1ccnc2cc(C(F)(F)F)ccc12 [EHT 1864]; conditions: top dose 10 µM; top dose inferred
Description: as §1

QL-XI-92 = compound: C=CC(=O)Nc1cc(NC(=O)c2ccc(C)c(NC(=O)c3ccno3)c2)cc(C(F)(F)F)c1 [QL-XI-92]; conditions: top dose 10.24 µM; top dose inferred
Description: as §1

S-Trityl-L-cysteine = compound: N[C@@H](CSC(c1ccccc1)(c1ccccc1)c1ccccc1)C(=O)O [S-Trityl-L-cysteine]; conditions: top dose 5.12 µM; top dose inferred
Description: as §1

Phenformin = compound: N=C(N)NC(=N)NCCc1ccccc1 [Phenformin]; conditions: top dose 4000 µM; top dose inferred
Description: as §1

Vinorelbine = compound: CCC1=C[C@@H]2CN(C1)Cc1c([nH]c3ccccc13)[C@@](C(=O)OC)(c1cc3c(cc1OC)N(C)[C@H]1[C@@](O)(C(=O)OC)[C@H](OC(C)=O)[C@]4(CC)C=CCN5CC[C@]31[C@@H]54)C2 [Vinorelbine]; conditions: top dose 0.064 µM; top dose inferred
Description: as §1

XL-184 = compound: COc1cc2nccc(Oc3ccc(NC(=O)C4(C(=O)Nc5ccc(F)cc5)CC4)cc3)c2cc1OC [XL-184]; conditions: top dose 5.12 µM; top dose inferred
Description: as §1

AG-014699 = compound: CNCc1ccc(-c2[nH]c3cc(F)cc4c3c2CCNC4=O)cc1 [AG-014699]; conditions: top dose 5 µM; top dose inferred
Description: as §1

## 697 (lymphoblastic leukaemia, suspension)
WHI-P97
  AUC: 0.876
  IC50: 6.78 µM
Gefitinib
  AUC: 0.991
  IC50: > 0.5 µM
NU-7441
  AUC: 0.881
  IC50: 1.39 µM
EHT 1864
  AUC: 0.905
  IC50: 8.7 µM
QL-XI-92
  AUC: 0.8
  IC50: 3.84 µM
S-Trityl-L-cysteine
  AUC: 0.534
  IC50: 0.389 µM
Phenformin
  AUC: 0.149
  IC50: 28.8 µM
Vinorelbine
  AUC: 0.486
  IC50: 0.00369 µM
XL-184
  AUC: 0.821
  IC50: 2.22 µM
AG-014699
  AUC: 0.773
  IC50: 1.57 µM

## A3-KAW (B-cell lymphoma, suspension)
WHI-P97
  AUC: 0.907
  IC50: 8.94 µM
Gefitinib
  AUC: 0.99
  IC50: > 0.5 µM
NU-7441
  AUC: 0.993
  IC50: > 2 µM
EHT 1864
  AUC: 0.943
  IC50: > 10 µM
QL-XI-92
  AUC: 0.883
  IC50: 7.13 µM
S-Trityl-L-cysteine
  AUC: 0.64
  IC50: 0.716 µM
Phenformin
  AUC: 0.416
  IC50: 155 µM
Vinorelbine
  AUC: 0.779
  IC50: 0.0209 µM
XL-184
  AUC: 0.913
  IC50: 4.75 µM
AG-014699
  AUC: 0.991
  IC50: > 5 µM

## A4-Fuk (B-cell lymphoma, suspension)
WHI-P97
  AUC: 0.986
  IC50: > 10.2 µM
Gefitinib
  AUC: 0.984
  IC50: > 0.5 µM
NU-7441
  AUC: 0.984
  IC50: > 2 µM
EHT 1864
  AUC: 0.976
  IC50: > 10 µM
QL-XI-92
  AUC: 0.971
  IC50: > 10.2 µM
S-Trityl-L-cysteine
  AUC: 0.549
  IC50: 0.437 µM
Phenformin
  AUC: 0.835
  IC50: 2800 µM
Vinorelbine
  AUC: 0.452
  IC50: 0.00294 µM
XL-184
  AUC: 0.868
  IC50: 5 µM
AG-014699
  AUC: 0.986
  IC50: > 5 µM

## ALL-SIL (T-cell leukaemia, suspension)
WHI-P97
  AUC: 0.917
  IC50: > 10.2 µM
Gefitinib
  AUC: 0.988
  IC50: > 0.5 µM
NU-7441
  AUC: 0.987
  IC50: > 2 µM
EHT 1864
  AUC: 0.969
  IC50: > 10 µM
QL-XI-92
  AUC: 0.478
  IC50: 0.564 µM
S-Trityl-L-cysteine
  AUC: 0.714
  IC50: 1.16 µM
Phenformin
  AUC: 0.416
  IC50: 152 µM
Vinorelbine
  AUC: 0.348
  IC50: 0.00162 µM
XL-184
  AUC: 0.532
  IC50: 0.387 µM

## CAS-1 (glioma, adherent)
WHI-P97
  AUC: 0.981
  IC50: > 10.2 µM
Gefitinib
  AUC: 0.976
  IC50: > 0.5 µM
NU-7441
  AUC: 0.966
  IC50: > 2 µM
QL-XI-92
  AUC: 0.95
  IC50: > 10.2 µM
S-Trityl-L-cysteine
  AUC: 0.981
  IC50: > 5.12 µM
Phenformin
  AUC: 0.79
  IC50: 2550 µM
Vinorelbine
  AUC: 0.818
  IC50: 0.0547 µM
XL-184
  AUC: 0.896
  IC50: > 5.12 µM
AG-014699
  AUC: 0.945
  IC50: > 5 µM

## ES4 (Ewing sarcoma, adherent)
WHI-P97
  AUC: 0.876
  IC50: > 10.2 µM
Gefitinib
  AUC: 0.942
  IC50: > 0.5 µM
NU-7441
  AUC: 0.96
  IC50: > 2 µM
QL-XI-92
  AUC: 0.932
  IC50: > 10.2 µM
S-Trityl-L-cysteine
  AUC: 0.81
  IC50: 3.19 µM
Phenformin
  AUC: 0.814
  IC50: 2590 µM
Vinorelbine
  AUC: 0.742
  IC50: 0.0221 µM
XL-184
  AUC: 0.908
  IC50: > 5.12 µM
AG-014699
  AUC: 0.924
  IC50: > 5 µM

## KCL-22 (chronic myeloid leukaemia, suspension)
WHI-P97
  AUC: 0.977
  IC50: > 10.2 µM
Gefitinib
  AUC: 0.99
  IC50: > 0.5 µM
NU-7441
  AUC: 0.977
  IC50: > 2 µM
EHT 1864
  AUC: 0.986
  IC50: > 10 µM
QL-XI-92
  AUC: 0.673
  IC50: 1.78 µM
S-Trityl-L-cysteine
  AUC: 0.586
  IC50: 0.529 µM
Phenformin
  AUC: 0.719
  IC50: 923 µM
Vinorelbine
  AUC: 0.659
  IC50: 0.0102 µM
XL-184
  AUC: 0.77
  IC50: 1.65 µM

## KOPN-8 (B-cell leukaemia, suspension)
WHI-P97
  AUC: 0.951
  IC50: > 10.2 µM
Gefitinib
  AUC: 0.99
  IC50: > 0.5 µM
NU-7441
  AUC: 0.96
  IC50: > 2 µM
EHT 1864
  AUC: 0.971
  IC50: > 10 µM
QL-XI-92
  AUC: 0.781
  IC50: 3.64 µM
S-Trityl-L-cysteine
  AUC: 0.665
  IC50: 0.851 µM
Phenformin
  AUC: 0.434
  IC50: 169 µM
Vinorelbine
  AUC: 0.722
  IC50: 0.0152 µM
XL-184
  AUC: 0.833
  IC50: 2.67 µM

## MHH-NB-11 (neuroblastoma, adherent)
WHI-P97
  AUC: 0.969
  IC50: > 10.2 µM
Gefitinib
  AUC: 0.984
  IC50: > 0.5 µM
NU-7441
  AUC: 0.904
  IC50: > 2 µM
QL-XI-92
  AUC: 0.921
  IC50: > 10.2 µM
S-Trityl-L-cysteine
  AUC: 0.843
  IC50: 4.15 µM
Phenformin
  AUC: 0.937
  IC50: > 4000 µM
Vinorelbine
  AUC: 0.929
  IC50: > 0.064 µM
XL-184
  AUC: 0.92
  IC50: > 5.12 µM

## MMAC-SF (melanoma, adherent)
WHI-P97
  AUC: 0.963
  IC50: > 10.2 µM
Gefitinib
  AUC: 0.959
  IC50: > 0.5 µM
NU-7441
  AUC: 0.98
  IC50: > 2 µM
QL-XI-92
  AUC: 0.951
  IC50: > 10.2 µM
S-Trityl-L-cysteine
  AUC: 0.793
  IC50: 2.46 µM
Phenformin
  AUC: 0.977
  IC50: > 4000 µM
Vinorelbine
  AUC: 0.733
  IC50: 0.0191 µM
XL-184
  AUC: 0.986
  IC50: > 5.12 µM

## NB13 (neuroblastoma, adherent)
WHI-P97
  AUC: 0.971
  IC50: > 10.2 µM
Gefitinib
  AUC: 0.962
  IC50: > 0.5 µM
NU-7441
  AUC: 0.966
  IC50: > 2 µM
QL-XI-92
  AUC: 0.919
  IC50: > 10.2 µM
S-Trityl-L-cysteine
  AUC: 0.773
  IC50: 1.77 µM
Phenformin
  AUC: 0.973
  IC50: > 4000 µM
Vinorelbine
  AUC: 0.55
  IC50: 0.00538 µM
XL-184
  AUC: 0.91
  IC50: > 5.12 µM
AG-014699
  AUC: 0.944
  IC50: > 5 µM

## NCI-H1838 (lung adenocarcinoma, adherent)
WHI-P97
  AUC: 0.974
  IC50: > 10.2 µM
Gefitinib
  AUC: 0.951
  IC50: > 0.5 µM
NU-7441
  AUC: 0.984
  IC50: > 2 µM
QL-XI-92
  AUC: 0.985
  IC50: > 10.2 µM
S-Trityl-L-cysteine
  AUC: 0.98
  IC50: > 5.12 µM
Phenformin
  AUC: 0.834
  IC50: 3440 µM
Vinorelbine
  AUC: 0.987
  IC50: > 0.064 µM
XL-184
  AUC: 0.981
  IC50: > 5.12 µM
AG-014699
  AUC: 0.985
  IC50: > 5 µM

## SK-ES-1 (Ewing sarcoma, semi-adherent)
WHI-P97
  AUC: 0.93
  IC50: > 10.2 µM
Gefitinib
  AUC: 0.967
  IC50: > 0.5 µM
NU-7441
  AUC: 0.915
  IC50: > 2 µM
EHT 1864
  AUC: 0.973
  IC50: > 10 µM
QL-XI-92
  AUC: 0.953
  IC50: > 10.2 µM
S-Trityl-L-cysteine
  AUC: 0.786
  IC50: 2.37 µM
Phenformin
  AUC: 0.763
  IC50: 1530 µM
Vinorelbine
  AUC: 0.642
  IC50: 0.0101 µM
XL-184
  AUC: 0.927
  IC50: > 5.12 µM

## SK-N-FI (neuroblastoma, adherent)
WHI-P97
  AUC: 0.986
  IC50: > 10.2 µM
Gefitinib
  AUC: 0.98
  IC50: > 0.5 µM
NU-7441
  AUC: 0.968
  IC50: > 2 µM
EHT 1864
  AUC: 0.97
  IC50: > 10 µM
QL-XI-92
  AUC: 0.986
  IC50: > 10.2 µM
S-Trityl-L-cysteine
  AUC: 0.849
  IC50: 3.79 µM
Phenformin
  AUC: 0.946
  IC50: > 4000 µM
Vinorelbine
  AUC: 0.986
  IC50: > 0.064 µM
XL-184
  AUC: 0.974
  IC50: > 5.12 µM
